According to paper PMC8300659:
Some values that stand alone complete this part of the results.

Biological target: Cys328 (UniProt position 328, VQSLTCEVDAL)
Assay: chemical modification
Details: Low, 5 mM buffers with no added salt stated, 5 mM citric acid/disodium phosphate (pH 3-5.5), disodium/monosodium phosphate (pH 6-8), Tris/HCl (pH 8.5-9), sodium carbonate/bicarbonate (pH 9.5-10.8), protein and MBB diluted in 5 mM Pipes/Na pH 7.0, Reduced, DTT-free soluble vimentin, without added zinc, folded (refolded from urea), mixture of oligomeric species possible

## Vimentin (Homo sapiens)
First ionization step
  pKa: 4.61 ± 0.36
Second ionization step
  pKa: 7.39 ± 0.41
